Measured values taken from the supplement of paper PMC11417369.
This is one part of the list.

Test system: PfHDP1 homeodomain (GST-tagged)
Assay: gcPBM binding intensity (ln(normalized median fluorescence intensity)); higher = stronger DNA binding
Outline: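 Each value is the highest Masliner-normalised natural-log median intensity across replicate spots of either orientation of a probe. The probes were primer-extended double-stranded 36-bp intergenic genomic sequences on an Agilent 4 × 180k array, alongside negative controls, exposed for 1 h to GST-tagged P. falciparum DNA-binding domains expressed in E. coli. Bound protein was picked up with Alexa488 anti-GST antibody and scanned at 488 nm.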

How did the “gcPBM binding intensity (ln)” value turn out when “CGTGGGAGCAGACACACACACACACCCATATATATA [CACACA_site334]” was run?
Its value is 6.67.

For “ATATTTATATGAATCACACACAAAAAATATAGAGAT [CACACA_site7775]”, which “gcPBM binding intensity (ln)” value is on record?
The value was 6.66.

With “ACTGTGGGAATAACCACACACACACCCACATATATA [CACACA_site3542]” as the sequence, how does the “gcPBM binding intensity (ln)” value read?
The value was 6.54.

“TTATTATATAAATAAAAAAAAAAAAAAAAAAAAAAA [CACACA_negctrl_site1455]” was tested. Which “gcPBM binding intensity (ln)” value did it give?
Its value is 5.95.

With “TATATACGCATGCGCACACACAAGTGGGAAATTTGG [CACACA_site1785]” as the sequence, how does the “gcPBM binding intensity (ln)” value read?
Its value is 7.08.

With “AATATGTTTTTTAGATGTACAGATTAAATATTAAAA [XGTACX_site7308]” as the sequence, how does the “gcPBM binding intensity (ln)” value read?
The value was 6.37.

With “CATAAATACAAATATACACACATATATATATATATA [CACACA_site2633]” as the sequence, how does the “gcPBM binding intensity (ln)” value read?
Its value is 9.4.

For “AAATCACAAAAAAAAAAAAAAATATATATATATATA [CACACA_negctrl_site10]”, which “gcPBM binding intensity (ln)” value is on record?
The value was 9.28.

For “TAGAAATATATTTATTGTACATTGTATATATTATAT [XGTACX_site7584]”, which “gcPBM binding intensity (ln)” value is on record?
Its value is 6.26.

“TTGAAGTGTACTATTTTATATATATATATACATTTT [CACACA_negctrl_site224]” was tested. Which “gcPBM binding intensity (ln)” value did it give?
Its value is 6.83.

For “ATTATGTGCCAATACACACACACATCTATATTTATA [CACACA_site6359]”, which “gcPBM binding intensity (ln)” value is on record?
The value was 7.13.

For “TCTTTTTTTTTTACTAGTACTTAAAAAAAAAATATG [XGTACX_site4395]”, which “gcPBM binding intensity (ln)” value is on record?
The value was 6.4.

Which “gcPBM binding intensity (ln)” value does the source give for TAATGTTCCTATATAGTGCAATTATGTTTTATTTCT here?
The value was 8.94.

Which “gcPBM binding intensity (ln)” value does the source give for “TACGATGTTTTAAAATGTACATAAAAGTCACATAAG [XGTACX_site3297]” here?
The value was 6.32.

With “TTTTAATTTTTAAGACGTACTATCATTTGATAATAA [XGTACX_site3942]” as the sequence, how does the “gcPBM binding intensity (ln)” value read?
The value was 6.02.

How did the “gcPBM binding intensity (ln)” value turn out when “TATTTATAAATATACGCACACATTAATATATATATA [CACACA_site3969]” was run?
Its value is 8.52.

How did the “gcPBM binding intensity (ln)” value turn out when “ATATTATTTATTTTTAAATTATATTGATTATTTTTT [CACACA_negctrl_site451]” was run?
Its value is 5.81.

For “GTTGGTAGGCGGTACGGTACACGTAGTATTTTTCTT [XGTACX_site4213]”, which “gcPBM binding intensity (ln)” value is on record?
The value was 6.4.

How did the “gcPBM binding intensity (ln)” value turn out when “AGTATGTAAATGTGCCATATATATATTAAATACATA [CACACA_negctrl_site14]” was run?
The value was 6.54.

With “TATGATAAATATGGAGCACACACACCGAAACATACA [CACACA_site8031]” as the sequence, how does the “gcPBM binding intensity (ln)” value read?
The value was 7.57.

With “AAGTGTTCTTGTTATACACACACATATATATATATA [CACACA_site8251]” as the sequence, how does the “gcPBM binding intensity (ln)” value read?
The value was 9.27.

For “TAGCATGATTTGCCTTGTACACAACCGTTTTAATAA [XGTACX_site7911]”, which “gcPBM binding intensity (ln)” value is on record?
Its value is 6.46.

“AAAAAAAAAAAAAAAACACACAAACATCAAATTACT [CACACA_site6950]” was tested. Which “gcPBM binding intensity (ln)” value did it give?
Its value is 6.65.

With “AAATTTAAAAATAAAGAACACACATATGTAAAATAT [CACACA_site9252]” as the sequence, how does the “gcPBM binding intensity (ln)” value read?
The value was 6.84.

How did the “gcPBM binding intensity (ln)” value turn out when “AATTTCAATTTCTGTTGTACACTTTTTAATAGTAAA [XGTACX_site4085]” was run?
Its value is 6.23.

“TTTTGTATTTTTCACACACACATAAGTAAACAATAA [CACACA_site1899]” was tested. Which “gcPBM binding intensity (ln)” value did it give?
The value was 6.81.

“TATATTATATATATATGTACATATTATTATATCTAA [XGTACX_site3835]” was tested. Which “gcPBM binding intensity (ln)” value did it give?
Its value is 6.39.

For “TAAATGAAAATATGTACACACTTGAAAATTTTTATG [CACACA_site5599]”, which “gcPBM binding intensity (ln)” value is on record?
Its value is 6.58.

For “ATACAATAATATAAATGTACAAATTATATCTTCATT [XGTACX_site8994]”, which “gcPBM binding intensity (ln)” value is on record?
Its value is 6.35.

With “AAATTAAATATTATATTAATTCTTAAATTTTTTTTT [CACACA_negctrl_site439]” as the sequence, how does the “gcPBM binding intensity (ln)” value read?
Its value is 5.68.

For “ATGTTGTGGATATATACACACATACATATTTATATA [CACACA_site6857]”, which “gcPBM binding intensity (ln)” value is on record?
Its value is 7.22.

With “AAACATATGGTATTTAAACACACAAAAAAGAAAGAA [CACACA_site8239]” as the sequence, how does the “gcPBM binding intensity (ln)” value read?
The value was 7.18.

How did the “gcPBM binding intensity (ln)” value turn out when “TACAAGAACAAAAAATGTACGAAATAATTACAAATA [XGTACX_site5824]” was run?
The value was 6.52.

“AATCTTTTTAAATCTTGATTAATTTCGGGTATATAT [TGCATGCA_negctrl_site107]” was tested. Which “gcPBM binding intensity (ln)” value did it give?
The value was 6.4.

For “TAATTATATAAATACACACACATACACCCAAATAAA [CACACA_site5819]”, which “gcPBM binding intensity (ln)” value is on record?
The value was 7.35.

Which “gcPBM binding intensity (ln)” value does the source give for “TATATACTATATATATGTACACAAAATTATTTTGAA [XGTACX_site8232]” here?
Its value is 6.67.

With “ATATGTAGTGTTATTTGTTCATTGTTTTAATTTTTA [CACACA_negctrl_site1394]” as the sequence, how does the “gcPBM binding intensity (ln)” value read?
Its value is 6.75.

“TATTATATATAATATTGTACATTAAAATATTAAAGA [XGTACX_site3698]” was tested. Which “gcPBM binding intensity (ln)” value did it give?
The value was 6.26.

“ATATGTATTAAGTGTACACATATAATGGGTTTTCTT [CACACA_site5328]” was tested. Which “gcPBM binding intensity (ln)” value did it give?
The value was 6.82.

“TTTATTTTAAAATATAGTACGCAAATAAAAATAAAT [XGTACX_site7783]” was tested. Which “gcPBM binding intensity (ln)” value did it give?
The value was 7.06.

For “GGAACGTTCATATTTCCACACACAAAAAATAAATAT [CACACA_site9101]”, which “gcPBM binding intensity (ln)” value is on record?
Its value is 6.81.

For “GAAAAAAAAATACATACACACAATATATTTATTTAT [CACACA_site3124]”, which “gcPBM binding intensity (ln)” value is on record?
The value was 6.41.

How did the “gcPBM binding intensity (ln)” value turn out when “TTCGTATGCATGAAATGTACATGATATTATTATAAA [XGTACX_site4542]” was run?
The value was 6.53.

For “TTTTGTTAACATATAGAAAAGAACAAAGTTAAAAAG [XGTACX_negctrl_site462]”, which “gcPBM binding intensity (ln)” value is on record?
Its value is 6.7.

How did the “gcPBM binding intensity (ln)” value turn out when “TATAAATTTGTTCAATGTACATGTAAAGATATAATC [XGTACX_site371]” was run?
The value was 6.61.
